Results as given in PubChem BioAssay AID624296 (National Center for Advancing Translational Sciences (NCATS), 2012).
In all, about 350,000 compounds went through this assay and about 9,900 (2.8%) were called active. The inconclusive results got no clear call from the source; some entries with a clear call stand among them for comparison. The call rests on the fitted dose curve; in most records, active means well fitted activation curve with a large enough effect; inconclusive means small, poorly fitted or top-dose-only effect; inactive means no such curve, though single readings can be large or run the other way. No potency is given beside an inconclusive call; the fits are too rough.

Assay: A quantitative high throughput screen for small molecules that induce DNA re-replication in MCF 10a normal breast cells. Further: nearly all actives have a fitted effect of over 50% in size. On activity, positive = re-replication: % of control where 0% means no effect.
Settings: MCF 10A DNA re-replication, Hoechst nuclear intensity, 48 h; activity, positive = re-replication: at 46.1 µM (top of the series)
Potency means the concentration at half of the fitted maximal effect; tags describe the fitted curve by direction and shape.

SMILES | Potency | activity, positive = re-replication
CN1CCN(c2ccccc2NC(=O)c2ccc(-c3cccc([N+](=O)[O-])c3)o2)CC1 | inconclusive [activator, single point] | –
COc1cc(OC)nc(NC(=O)COC(=O)c2cccc(Cl)c2)n1 | – | inactive: 9.27%
C=CCN1c2ccccc2[C@]23C[C@@H](C(=O)OC)N(C(C)=O)C2=NC(C(=O)OC)=C(C(=O)OC)[C@H]13 | – | inactive: 17.7%
Cc1ccc(S(=O)(=O)NCC(=O)N(CC(=O)NC2CCCC2)CC2CCCO2)cc1 (centres undefined) | – | inactive: -0.825%
Cc1nnc(Nc2ccccc2)n(N)c1=O | – | inactive: 3.35%
O/N=C\c1ccccc1Oc1ccc(F)cc1 | – | inactive: 6.13%
O=C(CCl)Nc1cccc2ncccc12 | inconclusive [activator, single point] | –
O=C(CN1CCN(c2ccc(F)cc2)CC1)NCc1ccc(F)cc1 | inconclusive [activator, partial curve, poor fit] | –
O=C(OCC(=O)N1CCC(Cc2ccccc2)CC1)c1ccccc1F | inconclusive [activator, single point] | –
COc1cc(/C=C2\CCCc3c2nc2ccccc2c3C(=O)O)cc(OC)c1O | – | inactive: -2.27%
COc1cc(OC)cc(C(=O)Nc2cccc(-c3ccc(N4CCOCC4)nn3)c2)c1 | inconclusive [activator, partial curve, poor fit] | –
COc1ccc(N2CCN(C(=O)CN3c4cccc5cccc(c45)S3(=O)=O)CC2)cc1 | – | inactive: 0.964%
Cc1ccc(C(=O)N/C(=C/c2ccco2)C(=O)Nc2cccc(C)c2)cc1 | inconclusive [activator, single point] | –
O=C(c1ccc2c3c(cccc13)CC2)C1CCCN(Cc2ccc(OCCO)cc2)C1 (centres undefined) | inconclusive [activator, single point] | –
O=C(CNC(=O)c1cccs1)NCCN1CCN(Cc2ccccc2)CC1 | inconclusive [activator, single point] | –
CCN1CCN(c2ncc(C(=O)Nc3cc(Cl)ccc3OC)c3ccccc23)CC1 | inconclusive [activator, partial curve, poor fit] | –
CCN(C(=O)CSc1nc2ccccc2n1CCc1ccccc1)C1CCS(=O)(=O)C1 (centres undefined) | inconclusive [activator, partial curve, poor fit] | –
Cc1cc(C)nc(N/N=C/c2cc(Br)ccc2O)n1 | inconclusive [activator, partial curve, poor fit] | –
CC(=O)Nc1ccc(S(=O)(=O)NC(C)c2ccccc2)cc1 (centres undefined) | inconclusive [activator, single point] | –
Cc1nc(SCC(=O)N2CC(=O)Nc3ccccc32)nc(C)c1C | – | inactive: -0.0087%
CCSc1nc(N)c(C#N)c(-c2ccco2)c1C#N | inconclusive [activator, partial curve, poor fit] | –
CC(c1nnnn1C1CCCCC1)N(Cc1ccccc1)Cc1cccnc1 (centres undefined) | inconclusive [activator, single point] | –
COc1cccc(-c2noc(C(C)n3nc(C)c([N+](=O)[O-])c3C)n2)c1 (centres undefined) | inconclusive [activator, partial curve, poor fit] | –

SMILES | Potency | activity, positive = re-replication
COc1ccc(-c2cc(C)no2)cc1S(=O)(=O)N1CCN(c2ccccn2)CC1 | – | inactive: 10.7%
Cc1ccc(S(=O)(=O)N2CCCCC2)cc1NC(=O)CSc1nnc(C2CC2)n1C | – | inactive: 4.21%
CCOC(=O)Cc1csc(NC(=O)COc2ccc(N(C)S(=O)(=O)c3ccc(C)cc3)cc2)n1 | – | inactive: 17.1%
C=CCn1c(SCC(C)=O)nc2scc(-c3ccc(C)o3)c2c1=O | inconclusive [activator, partial curve] | –
CCn1c(SCC(=O)Nc2ccc3c(c2)OCCO3)nnc1-c1cccs1 | inconclusive [activator, partial curve, poor fit] | –
COc1ccc(OC)c(NC(=O)CCNC(=O)Cn2ccc3ccccc3c2=O)c1 | – | inconclusive: -40.2% [activator]
COc1cc(-c2cc(=O)c3c(O)c(OC)c(OC)c(O)c3o2)ccc1O | inconclusive [activator, partial curve, poor fit] | –
COc1cc2c(c(OC)c1OC)-c1ccc(OC)c(=O)cc1C(NC(=O)c1ccccc1)CC2 (centres undefined) | – | inconclusive: 80.1% [activator]
CC(CCc1ccccc1)NC(=O)CNC(=S)N(Cc1cccs1)C1CCCC1 (centres undefined) | inconclusive [activator, single point] | –
Cc1cc(Cl)c(OCCCCN2CCOCC2)c(Br)c1 | inconclusive [activator, partial curve, poor fit] | –
Nc1nccc(-c2ccc(-n3cccc3)cc2)n1 | – | inactive: 0.278%
COC(=O)c1ccc(COC(=O)[C@@H]2CC(O)CN2S(=O)(=O)c2ccccc2[N+](=O)[O-])cc1 (some centres undefined) | – | inactive: 0.02%
NC(=O)CC(NC(=O)Cc1ccc(Br)cc1)c1ccc(NCc2ccccn2)c([N+](=O)[O-])c1 (centres undefined) | inconclusive [activator, full curve, poor fit] | –
COc1ccc(OC)c(/C=C2\SC(N3CCCC(C)C3)=NC2=O)c1 (centres undefined) | inconclusive [activator, single point] | –
O=C(COc1ccc([N+](=O)[O-])cc1)Nc1ccc(N2CCN(C(=O)c3ccco3)CC2)cc1 | – | inactive: -1.02%
Cc1cc2nc3n(c2cc1C)CC1CC(C(=O)NCc2cccc(Br)c2)N(C)C31 (centres undefined) | – | inactive: 5.51%
Cc1c(CCOC(=O)CC23CC4CC(CC(C4)C2)C3)sc[n+]1CC(=O)c1ccccc1 | inconclusive [activator, partial curve, poor fit] | –
O=C(Nc1ccc(Cl)c(Cl)c1)Nc1nnc(-c2ccncc2)s1 | inconclusive [activator, full curve, poor fit] | –
CCn1c(N2CCN(S(=O)(=O)c3ccccc3C(F)(F)F)CC2)nc2ccccc21 | inconclusive [activator, single point] | –
CCc1nc(Nc2ccccc2OC)c2oc3ccccc3c2n1 | inconclusive [activator, single point] | –
CN1C(=O)C(O)(CC(=O)c2cccnc2)c2ccccc21 (centres undefined) | inconclusive [activator, partial curve, poor fit] | –
Cc1cc(C(=O)O)ccc1-n1c(C)cc(/C=C(/C#N)C(=O)Nc2ccccc2)c1C | inconclusive [activator, single point] | –
O=C(NC1CCCCCCC1)c1ccc(F)cc1 | – | inactive: -0.806%

SMILES | Potency | activity, positive = re-replication
CCOC(=O)C1=C(CC)OC(N)=C(C#N)C1c1ccc(OC)c(C)c1OC (centres undefined) | inconclusive [activator, single point] | –
O=C1CC(c2ccccc2)CC(O)=C1C=NCCc1ccccc1 (centres undefined) | – | inactive: -1.05%
Cc1oc(-c2ccccc2)cc1C(N)=O | inconclusive [activator, full curve, poor fit] | –
CCC1Cc2c(nc(N)c3c(N)nc(N4CCCCC4)c(C#N)c23)O1 (centres undefined) | inconclusive [activator, single point] | –
CCCCC(=O)Nc1nc(C)c(-c2csc(Nc3cc(OC)ccc3OC)n2)s1 | inconclusive [activator, single point] | –
CC(=O)Nc1ccc(NC(=S)NC(=O)/C=C/c2ccccc2)cc1 | inconclusive [activator, single point] | –
COc1ccccc1NCC(=O)NNC(C)C(=O)Nc1cccc(Cl)c1 (centres undefined) | inconclusive [activator, partial curve, poor fit] | –
Cc1ccc2nc(NCc3ccccc3)[nH]c2c1 | inconclusive [activator, partial curve, poor fit] | –
O=C(NC1CCCCCC1)c1c2c(nc3ccccc13)CCN(Cc1ccccc1)C2 | inconclusive [activator, single point] | –
COc1ccc(-c2csc3ncnc(N4CCN(c5ccccc5Cl)CC4)c23)cc1 | active: 18.4 µM | –
CC(C)C(=O)N(c1cc2sc(=O)oc2c2ccccc12)S(=O)(=O)c1cccs1 | inconclusive [activator, single point] | –
COc1cc([N+](=O)[O-])cc(/C=N/NC(=O)c2ccc(NC(=O)c3ccc(C)cc3)cc2)c1O | – | inactive: 18.3%
COc1ccc(NC2=C(NC(C)=O)C(=O)c3ccccc3C2=O)cc1 | – | inactive: -1.51%
OCCN1CCN(CC(O)COc2ccc(C34CC5CC(CC(C5)C3)C4)cc2)CC1 (centres undefined) | active: 11.6 µM | –
Cn1c(=O)n(C)c2cc(NS(=O)(=O)c3ccc(C(C)(C)C)cc3)ccc21 | – | inactive: 3.16%
CC(=O)Nc1ccc(Nc2nc3c(S(=O)(=O)c4ccc(C)c(C)c4)nnn3c3ccccc23)cc1 | inconclusive [activator, partial curve, poor fit] | –
CC1CC(C)(C)CC2(C1)NC(=O)N(CC(=O)N(Cc1ccccc1)c1ccccc1)C2=O (centres undefined) | inconclusive [activator, single point] | –
O=C(NCCCN1CCOCC1)c1cccc(S(=O)(=O)Nc2ccccc2Cl)c1 | – | inactive: 9.19%
Fc1ccccc1NC(=S)N1CCN(C/C=C/c2ccccc2)CC1 | – | inactive: 17.5%
Fc1cc(Cl)ccc1NC1=NCCCCC1 | – | inactive: -0.208%
c1ccc(Cn2nnnc2C(c2ccccn2)N2CCOCC2)cc1 (centres undefined) | inconclusive [activator, partial curve, poor fit] | –
N#Cc1cccc(C#N)c1Oc1ccc(N)cc1 | – | inactive: -3.26%
COc1ccc(NC(=O)C2CCCN(S(=O)(=O)c3cccs3)C2)cc1OC (centres undefined) | inconclusive [activator, single point] | –
